Data taken from PubChem BioAssay AID485344 (National Center for Advancing Translational Sciences (NCATS), 2010).
Screen size: about 340,000 compounds; about 6,900 (2%) were called active. No stated cut-off is given here; in the data, active means inhibition above about 30%; inactive means below that, where a call was filed. The list shows a part of the results, in another mix than the full data. Entries without a call were filed so in the source.

Biological target: D(2) dopamine receptor (Homo sapiens) (UniProt P14416)
Experiment: HTS Assay for Allosteric Antagonists of the Human D2 Dopamine Receptor: Primary Screen for Antagonists; further: 0% is about no effect
Conditions: HEK293 TREx D2 cells, calcium flux, dopamine EC80; at 10 µM; stronger effect = higher value
In short: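 Read-out: kinetic calcium fluorescence (1 cycle/s) in inducible HEK293 T-REx D2 cells after an EC80 dopamine addition that followed 180 s compound preincubation. Loss of the dopamine response indicates antagonism.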

UniProt P14416, sequence (P14416 whole entry, looked up): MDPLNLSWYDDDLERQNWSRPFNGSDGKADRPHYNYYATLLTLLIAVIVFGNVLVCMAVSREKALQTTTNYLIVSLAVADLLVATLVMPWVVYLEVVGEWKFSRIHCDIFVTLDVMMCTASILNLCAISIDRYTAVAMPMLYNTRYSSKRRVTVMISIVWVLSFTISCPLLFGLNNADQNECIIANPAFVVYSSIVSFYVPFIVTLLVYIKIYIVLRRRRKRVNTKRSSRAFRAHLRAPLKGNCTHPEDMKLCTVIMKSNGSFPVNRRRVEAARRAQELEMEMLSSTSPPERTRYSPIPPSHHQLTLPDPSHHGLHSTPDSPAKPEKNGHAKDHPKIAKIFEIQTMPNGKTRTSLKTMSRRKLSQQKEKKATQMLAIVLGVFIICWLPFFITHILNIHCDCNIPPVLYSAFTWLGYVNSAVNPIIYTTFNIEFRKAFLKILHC

SMILES | inhibition
CCOC(=O)c1ccc(NC(=S)N(CCCN2CCCC(C)C2)Cc2cccs2)cc1 (stereo unspecified) | active: 39.6%
Cc1ccccc1NC(=O)CCn1nc(-c2ccc(Cl)cc2)c2ccccc2c1=O | 13.6%
COc1cccc(CNC(=O)c2cc(=O)[nH]c3ccc(S(=O)(=O)N4CCCC4)cc23)c1 | -8.13%
COc1ccc(CNC(=O)CC2Oc3ccc(C)cc3NC2=O)cc1 (stereo unspecified) | 7.04%
COc1ccc(-c2csc3nc(-c4ccc(C)cc4)oc(=O)c23)cc1OC | 6.79%
O=c1c2sc3ccccc3c2n(Cc2ccc(Cl)cc2)c(=O)n1Cc1ccco1 | -2.41%
Cc1ccc(NC(=O)CCc2nc3cccnc3n2-c2ccccc2)cc1Cl | -2.39%
Cc1cccc(NC(=O)Cn2cnc3sc(C)c(S(=O)(=O)N4CCC(C)CC4)c3c2=O)n1 | active: 31.6%
Cc1ccc(N(Cc2cccs2)C(=O)c2ccccc2[N+](=O)[O-])cc1 | -3.56%
COc1ccc(CCN(C)CCCC(C#N)(c2cc(OC)c(OC)c(OC)c2)C(C)C)cc1OC (stereo unspecified) | active: 45.3%
CCC(C)NC(=O)Cn1c(=O)c2cccn2c2ccc(F)cc21 (stereo unspecified) | -0.545%
Cc1ccc(CN2CCN(c3cccc4[nH]ccc34)CC2)cc1 | active: 72.3%
CCOc1ccccc1C(=O)NC(C(=O)Nc1cccc(S(N)(=O)=O)c1)C(C)C (stereo unspecified) | active: 33.2%
Cc1ccccc1Cn1c(C)c(CNCCCc2ccccc2)c(C(=O)O)c1C | 0.267%
Cc1ccc2[nH]c3c(c2c1)CCN(C)C3 | active: 33.7%
Cc1ccccc1Nc1c(-c2c[nH]c3ccccc23)nc2cccc(C)n12 | 2.07%
COc1ccc(C2C=C(c3ccc(Cl)cc3)Nc3nc(NC(=O)CCC(=O)O)nn32)cc1 (stereo unspecified) | -3.63%
Brc1cccc(-c2nnn3c2nc(N2CCCCC2)c2ccccc23)c1 | 8.25%
CCN(CC(=O)Nc1c(F)cccc1F)C(=O)Cc1csc(-c2ccccc2)n1 | active: 35.3%
Cc1ccc2nc3c(c(Nc4ccc(C)c(C)c4)c2c1)CCC3 | 8.31%
O=C(CNS(=O)(=O)c1cccs1)N1CCN(c2ccccc2F)CC1 | 6.97%
Cc1ccc(F)cc1S(=O)(=O)N1CCC(c2nc3ccccc3s2)CC1 | -10.7%
CCCn1c(=O)c2sccc2n2c(CCCC(=O)NC3CCCCC3)nnc12 | 4.24%
Fc1ccccc1N1CCN(c2ncnc3c2nc2n3CCCC2)CC1 | 2.71%

SMILES | inhibition
CN(C)c1ccc(NC(=O)Cn2cc(S(=O)(=O)Cc3ccccc3Cl)c3ccccc32)cc1 | 3.9%
CCOC(=O)c1ccc(NC(=O)CSc2ncc(S(=O)(=O)c3ccc(C)c(Cl)c3)c(=O)[nH]2)cc1 | 14.3%
OC(COCC1COc2ccccc2O1)CN1CCN(c2ccccc2F)CC1 (stereo unspecified) | active: 83.6%
CCn1cc2nc(SCC(=O)Nc3ccc(OC)cc3OC)n(Cc3ccc(Cl)cc3)c(=O)c2n1 | -6.67%
CCc1ccc(CN(Cc2ccco2)C(=O)c2cc(-c3ccc(C)c(F)c3)on2)cc1 | 10.3%
CCOc1ccc(NC(=O)Cn2cc(C(=O)c3ccc(C)cc3)c(=O)c3cc4c(cc32)OCO4)cc1 | 0.765%
CCOCCc1nn2c(=O)cc(COC(=O)c3ccccc3NC(=O)c3ccc(C)cc3)nc2s1 | -1.29%
Cc1ccc(Cl)cc1N1CCN(C(=O)c2noc3c2CCCC3)CC1 | -4.26%
CCOC(=O)c1cc2c(=O)n3ccccc3nc2n(Cc2ccco2)c1=NC(=O)c1cccc(Br)c1 | 3.94%
CCN(CC)CCNCc1ccc(-c2ccc(Cl)cc2)o1 | active: 33.4%
Cc1ccc(-n2nnnc2CNC(=O)C2CC(=O)N(c3ccccc3)C2)cc1C (stereo unspecified) | -9%
COc1ccc(Cl)cc1NC(=O)Cn1nnc2sc(-c3ccccc3)cc2c1=O | 2.46%
CCN(CC)c1ccc(NC(=O)CCc2c(C)nc3ncnn3c2C)c(C)c1 | -4.14%
COc1cc(C2C(C(=O)Nc3ccccc3C)=C(C)Nc3nc(SCc4cc(C)ccc4C)nn32)ccc1O (stereo unspecified) | 13.4%
CN(c1ccc(OCC(=O)N2CCOCC2)cc1)S(=O)(=O)c1ccc(Cl)cc1 | active: 35.4%
O=S(=O)(NCCc1csc2nc(-c3ccccc3)nn12)c1ccc(Oc2ccccc2)cc1 | 22.5%
CCCc1nn2c(=O)cc(COC(=O)c3ccc(NC(=O)COc4ccccc4F)cc3)nc2s1 | -0.999%
Cc1ccc(S(=O)(=O)N2CCc3cc(C(=O)Nc4ccc(Cl)cc4C)ccc32)cc1 | -12.2%
CCOc1ccc(CCNCc2c(C(=O)O)c(C)n(Cc3ccccc3F)c2C)cc1 | -3.19%
CCOc1ccc(NC(=O)[C@@H](c2ccccc2)N2Cc3ccccc3C2=O)cc1 | -9.64%
CC(C)c1ccc(N2C(=O)N(Cc3cccc([N+](=O)[O-])c3)c3ccccc3S2(=O)=O)cc1 | 5.19%
CC1Cc2cc(S(=O)(=O)NCc3ccc(Cl)cc3)ccc2N1C(=O)C1CCC1 (stereo unspecified) | -17.1%
Cc1ccc(CN2C(=O)CCC2C(=O)NCCN2CCN(c3cccc(Cl)c3)CC2)cc1 (stereo unspecified) | active: 43.8%
COc1ccc(NS(=O)(=O)c2ccc3c(c2)[C@H]2C=CC[C@H]2[C@@H](c2ccc(C(=O)O)cc2)N3)cc1 | -5.71%

SMILES | inhibition
CSc1cccc(NC(=O)/C=C/c2ccccc2)c1 | active: 39.3%
O=C1CN(C(=O)Cc2ccccc2)C(c2ccc(F)cc2)c2cc(Br)ccc2N1 (stereo unspecified) | -1.11%
Cc1cc(S(=O)(=O)Nc2ccc3oc4c(c3c2)CCCC4)ccc1Cl | -10.6%
CCc1cccc(-n2c(=O)c3cccnc3n2CC(=O)Nc2ccc(OC)c(Cl)c2)c1 | -0.698%
COc1ccc(NC(=O)C2Cc3ccccc3CN2S(=O)(=O)c2ccccc2)cc1OC (stereo unspecified) | -16.9%
COc1ccc(C(=O)Oc2ccc(C(c3c(C)[nH][nH]c3=O)c3c(C)[nH][nH]c3=O)cc2)cc1 | -5.4%
COc1cccc(-n2c(SCC(N)=O)nc3c(oc4ccccc43)c2=O)c1 | 2.53%
CCc1ccccc1NC(=O)CCCn1c(=O)c2cccn2c2ccccc21 | 23.6%
CCC(=O)Nc1ccc(CC)cc1-c1nc2ccccc2n(CC(=O)c2ccc(OC)cc2)c1=O | 23%
Cc1ccc(-c2cc(NC(=O)c3cccc(C)c3)on2)cc1 | 4.81%
CCc1nonc1NC(=O)c1oc2cc(C)c(C)cc2c1C | 8.87%
O=S(=O)(NCc1ccc(F)cc1)c1ccc2[nH]c3c(c2c1)CCCC3 | -20.8%
Cc1c(Cl)cccc1NC(=O)c1oc2ccc(S(=O)(=O)N3CCC4(CC3)OCCO4)cc2c1C | 19.6%
CCCCSc1nc(-c2cccc(OC)c2)nc2c1Cc1c(CO)cnc(C)c1O2 | 1.52%
N#CCO/N=C/C(=O)Nc1ccc(F)cc1F | active: 53.2%
Cc1ccc(NC(=O)c2cnc3cc(C)ccn3c2=O)c(C)c1 | -0.46%
COc1ccc(-c2cc(C(=O)Nc3cc(C)nn3-c3ccccc3)no2)cc1OC | 15.4%
Cc1ccc(C(=O)Nc2cc(-c3nc4cc(Cl)ccc4o3)ccc2C)c(C)c1 | 4.8%
O=S(=O)(NCc1csc(-c2ccccc2)n1)c1ccccc1 | -11%
COc1ccc(Cn2c(CNS(=O)(=O)c3ccc(Cl)s3)nc3cccnc32)cc1 | -17.9%
Cc1cccc(Cn2c(CN3CCC(C(=O)NCc4ccccc4Cl)CC3)cc3ccccc32)c1 | 15.5%
CCCN1C(=O)c2[nH]nc(-c3ccc(OC)cc3)c2C1c1ccccn1 (stereo unspecified) | -12.6%
COC(=O)c1sc(N2C(=O)c3oc4cc(C)c(C)cc4c(=O)c3C2c2ccccc2F)nc1C (stereo unspecified) | -0.482%
COc1ccc(C(CNC(=O)C(CCSC)NC(=O)c2ccccc2Cl)N2CCCCC2)cc1 (stereo unspecified) | active: 40.7%

SMILES | inhibition
COc1ccc(CN2CCc3nc(N4CCN(c5ccc(F)cc5)CC4)ncc3C2)c(OC)c1OC | 5.3%
CCOCCCNC(=O)C1CCN(c2nc3ccc(Cl)cc3[nH]2)CC1 | -7.86%
O=C(c1cnn(-c2ccc(F)cc2)c1-n1cccc1)N1CCN(c2cccc(Cl)c2)CC1 | -11.2%
COc1cccc(NC(=O)Cn2nc(-c3ccncc3)ccc2=O)c1 | -0.256%
CNC(=O)C1CCC(Cn2c(=O)c3sccc3n(CC(=O)Nc3cc(C)cc(C)c3)c2=O)CC1 (stereo unspecified) | -10.4%
COc1ccc(Cl)cc1NC(=O)c1noc2c1CCCC2 | active: 31.3%
O=C(c1c[nH]c2ccc(S(=O)(=O)Nc3ccccc3F)cc2c1=O)N1CCCCCC1 | -3.51%
Cc1cc2ccccn2c1C(=O)c1ccc([N+](=O)[O-])o1 | active: 36.4%
CC(C)c1ccc(C(=O)CC2(O)C(=O)N(CCc3ccccc3)c3ccc(Cl)cc32)cc1 (stereo unspecified) | 19.6%
CCOc1ccc(NC(=O)C(=O)NCCc2sc(-c3ccc(C)cc3)nc2C)cc1 | 4.42%
COc1ccc(OC)c(NC(=O)C2CCN(S(=O)(=O)c3c(C)noc3/C=C/c3ccc(C)cc3)CC2)c1 | -21.4%
COc1cccc(-c2nn(C)c3sc(C(=O)NCCCN(C)Cc4ccccc4)cc23)c1 | active: 33.2%
CCC(C)n1c(=N)c(C(=O)NCc2ccco2)cc2c(=O)n3cc(C)ccc3nc21 (stereo unspecified) | -12.4%
CC1CCCCN1CCCNC(=O)c1sc2ncccc2c1-n1cccc1 (stereo unspecified) | 6.29%
O=C(CSc1nnc2[nH]c(=O)cc(-c3ccccc3)n12)Nc1ccccc1C(F)(F)F | 11.3%
O=[N+]([O-])c1ccccc1OCCNCc1ccccc1 | active: 78.1%
Cc1cccc(NC(=O)Nc2ccc(C)c(C)c2)n1 | -14.4%
Cc1cc(OCC(=O)Nc2ccc(C(=O)OC3CCCCC3)cc2)ccc1Cl | 16.6%
O=c1c2cccnc2n(Cc2ccc(Cl)cc2)c(=O)n1Cc1ccc(F)cc1 | -1.63%
CNC(=O)c1cccc(-n2c(C)nc3cccnc32)c1C | 0.815%
CCCSc1nnc(NC(=O)Cc2coc3cc(C)ccc23)s1 | -4.85%
CC(=O)c1ccc(NC(=O)CSc2nc3c(=O)n(C)c(=O)n(C)c3n2C)cc1 | -3.41%
CC(=O)Nc1ccc(S(=O)(=O)N2CCN(c3ccc(C)c(C)c3)CC2)cc1 | 15.8%
Cc1cc(N2CCN(C)CC2)nc2ccc(NC(=O)c3ccccc3F)cc12 | -4.28%
